# This is one part of the list. Binding of human transcription factors and regulators to the viral nucleoprotein by AlphaScreen, crude cell-free proteins, amounts not normalised, one pass. Fold of the Venus control; higher = more signal. No active / inactive call. Single-pass screen; sequences are the whole Swiss-Prot entries looked up by name.
# B1: RFX2, P48378 (protein)
# chain: MQNSEGGADSPASVALRPSAAAPPVPASPQRVLVQAASSNPKGAQMQPISLPRVQQVPQQVQPVQHVYPAQVQYVEGGDAVYTNGAIRTAYTYNPEPQMYAPSSTASYFEAPGGAQVTVAASSPPAVPSHSMVGITMDVGGSPIVSSAGAYLIHGGMDSTRHSLAHTSRSSPATLEMAIENLQKSEGITSHKSGLLNSHLQWLLDNYETAEGVSLPRSSLYNHYLRHCQEHKLDPVNAASFGKLIRSVFMGLRTRRLGTRGNSKYHYYGIRLKPDSPLNRLQEDTQYMAMRQQPMHQKPRYRPAQKTDSLGDSGSHSGLHSTPEQTMAVQSQHHQQYIDVSHVFPEFPAPDLGSFLLQDGVTLHDVKALQLVYRRHCEATVDVVMNLQFHYIEKLWLSFWNSKASSSDGPTSLPASDEDPEGAVLPKDKLISLCQCDPILRWMRSCDHILYQALVEILIPDVLRPVPSTLTQAIRNFAKSLEGWLTNAMSDFPQQVIQTKVGVVSAFAQTLRRYTSLNHLAQAARAVLQNTSQINQMLSDLNRVDFANVQEQASWVCQCEESVVQRLEQDFKLTLQQQSSLDQWASWLDSVVTQVLKQHAGSPSFPKAARQFLLKWSFYSSMVIRDLTLRSAASFGSFHLIRLLYDEYMFYLVEHRVAEATGETPIAVMGEFNDLASLSLTLLDKDDMGDEQRGSEAGPDARSLGEPLVKRERSDPNHSLQGI
# B2: EVX1, P49640 (protein)
# chain: MESRKDMVVFLDGGQLGTLVGKRVSNLSEAVGSPLPEPPEKMVPRGCLSPRAVPPATRERGGGGPEEEPVDGLAGSAAGPGAEPQVAGAAMLGPGPPAPSVDSLSGQGQPSSSDTESDFYEEIEVSCTPDCATGNAEYQHSKGSGSEALVGSPNGGSETPKSNGGSGGGGSQGTLACSASDQMRRYRTAFTREQIARLEKEFYRENYVSRPRRCELAAALNLPETTIKVWFQNRRMKDKRQRLAMTWPHPADPAFYTYMMSHAAAAGGLPYPFPSHLPLPYYSPVGLGAASAASAAASPFSGSLRPLDTFRVLSQPYPRPELLCAFRHPPLYPGPAHGLGASAGGPCSCLACHSGPANGLAPRAAAASDFTCASTSRSDSFLTFAPSVLSKASSVALDQREEVPLTR
# B3: ARHGEF5, Q12774 (protein)
# chain: MEAEEAQRGASPPISAIEEFSIIPEAPMRSSQVSALGLEAQEDEDPSYKWREEHRLSATQQSELRDVCDYAIETMPSFPKEGSADVEPNQESLVAEACDTPEHWEAVPQSLAGRQARTLAPPELWACPIQSEHLDMAPFSSDLGSEEEEVEFWPGLTSLTLGSGQAEEEEETSSDNSGQTRYYSPCEEHPAETNQNEGSESGTIRQGEELPPEELQESQGLLHPQEVQVLEEQGQQEAGFRGEGTLREDVCADGLLGEEQMIEQVNDEKGEQKQKQEQVQDVMLGRQGERMGLTGEPEGLNDGEWEQEDMERKAQGQGGPEQGEERKRELQVPEENRADSQDEKSQTFLGKSEEVTGKQEDHGIKEKGVPVSGQEAKEPESWDGGRLGAVGRARSREEENEHHGPSMPALIAPEDSPHCDLFPGASYLMTQIPGTQTESRAEELSPAALSPSLEPIRCSHQPISLLGSFLTEESPDKEIDQNSQQEESRLRKGTVSSQGTEVVFASASVTPPRTPDSAPPSPAEAYPITPASVSARPPVAFPRRETSCAARAPETASAPLSMDDPSPCGTSEMCPAALYGFPSTGTSPPRPPANSTGTVQHLRSDSFPGSHRTEQTPDLVGMLLSYSHSELPQRPPKPAIYSSVTPRRDRRSGRDYSTVSASPTALSTLKQDSQESISNLERPSSPPSIQPWVSPHNPAFATESPAYGSSPSFVSMEDVRIHEPLPPPPPQRRDTHPSVVETDGHARVVVPTLKQHSHPPPLALGSGLHAPHKGPLPQASDPAVARQHRPLPSTPDSSHHAQATPRWRYNKPLPPTPDLPQPHLPPISAPGSSRIYRPLPPLPIIDPPTEPPPLPPKSRGRSRSTRGGHMNSGGHAKTRPACQDWTVPLPASAGRTSWPPATARSTESFTSTSRSKSEVSPGMAFSNMTNFLCPSSPTTPWTPELQGPTSKDEAGVSEHPEAPAREPLRRTTPQQGASGPGRSPVGQARQPEKPSHLHLEKASSWPHRRDSGRPPGDSSGQAVAPSEGANKHKGWSRQGLRRPSILPEGSSDSRGPAVEKHPGPSDTVVFREKKPKEVMGGFSRRCSKLINSSQLLYQEYSDVVLNKEIQSQQRLESLSETPGPSSPRQPRKALVSSESYLQRLSMASSGSLWQEIPVVRNSTVLLSMTHEDQKLQEVKFELIVSEASYLRSLNIAVDHFQLSTSLRATLSNQEHQWLFSRLQDVRDVSATFLSDLEENFENNIFSFQVCDVVLNHAPDFRRVYLPYVTNQTYQERTFQSLMNSNSNFREVLEKLESDPVCQRLSLKSFLILPFQRITRLKLLLQNILKRTQPGSSEEAEATKAHHALEQLIRDCNNNVQSMRRTEELIYLSQKIEFECKIFPLISQSRWLVKSGELTALEFSASPGLRRKLNTRPVHLHLFNDCLLLSRPREGSRFLVFDHAPFSSIRGEKCEMKLHGPHKNLFRLFLRQNTQGAQAEFLFRTETQSEKLRWISALAMPREELDLLECYNSPQVQCLRAYKPRENDELALEKADVVMVTQQSSDGWLEGVRLSDGERGWFPVQQVEFISNPEVRAQNLKEAHRVKTAKLQLVEQQA
# B4: AR, P10275 (protein)
# chain: MEVQLGLGRVYPRPPSKTYRGAFQNLFQSVREVIQNPGPRHPEAASAAPPGASLLLLQQQQQQQQQQQQQQQQQQQQQQQETSPRQQQQQQGEDGSPQAHRRGPTGYLVLDEEQQPSQPQSALECHPERGCVPEPGAAVAASKGLPQQLPAPPDEDDSAAPSTLSLLGPTFPGLSSCSADLKDILSEASTMQLLQQQQQEAVSEGSSSGRAREASGAPTSSKDNYLGGTSTISDNAKELCKAVSVSMGLGVEALEHLSPGEQLRGDCMYAPLLGVPPAVRPTPCAPLAECKGSLLDDSAGKSTEDTAEYSPFKGGYTKGLEGESLGCSGSAAAGSSGTLELPSTLSLYKSGALDEAAAYQSRDYYNFPLALAGPPPPPPPPHPHARIKLENPLDYGSAWAAAAAQCRYGDLASLHGAGAAGPGSGSPSAAASSSWHTLFTAEEGQLYGPCGGGGGGGGGGGGGGGGGGGGGGGEAGAVAPYGYTRPPQGLAGQESDFTAPDVWYPGGMVSRVPYPSPTCVKSEMGPWMDSYSGPYGDMRLETARDHVLPIDYYFPPQKTCLICGDEASGCHYGALTCGSCKVFFKRAAEGKQKYLCASRNDCTIDKFRRKNCPSCRLRKCYEAGMTLGARKLKKLGNLKLQEEGEASSTTSPTEETTQKLTVSHIEGYECQPIFLNVLEAIEPGVVCAGHDNNQPDSFAALLSSLNELGERQLVHVVKWAKALPGFRNLHVDDQMAVIQYSWMGLMVFAMGWRSFTNVNSRMLYFAPDLVFNEYRMHKSRMYSQCVRMRHLSQEFGWLQITPQEFLCMKALLLFSIIPVDGLKNQKFFDELRMNYIKELDRIIACKRKNPTSCSRRFYQLTKLLDSVQPIARELHQFTFDLLIKSHMVSVDFPEMMAEIISVQVPKILSGKVKPIYFHTQ
# B5: ZNF280A, P59817 (protein)
# chain: MGDIFLCKKVESPKKNLRESKQREEDDEDPDLIYVGVEHVHRDAEVLFVGMISNSKPVVSNILNRVTPGSNSRRKKGHFRQYPAHVSQPANHVTSMAKAIMPVSLSEGRSTDSPVTMKSSSEPGYKMSSPQVVSPSSSDSLPPGTQCLVGAMVSGGGRNESSPDSKRLSTSDINSRDSKRVKLRDGIPGVPSLAVVPSDMSSTISTNTPSQGICNSSNHVQNGVTFPWPDANGKAHFNLTDPERASESALAMTDISSLASQNKTFDPKKENPIVLLSDFYYGQHKGDGQPEQKTHTTFKCLSCVKVLKNIKFMNHMKHHLEFEKQRNDSWEDHTTCQHCHRQFPTPFQLQCHIDSVHIAMGPSAVCKICELSFETDQVLLQHMKDHHKPGEMPYVCQVCHYRSSVFADVETHFRTCHENTKNLLCLFCLKLFKTAIPYMNHCWRHSRRRVLQCSKCRLQFLTLKEEIEHKTKDHQTFKKPEQLQGLPSETKVIIQTSVQPGSSGMASVIVSNTDPQSSPVKTKKKTAMNTRDSRLPCSKDSS
# B6: ESRRA, P11474 (protein)
# chain: MSSQVVGIEPLYIKAEPASPDSPKGSSETETEPPVALAPGPAPTRCLPGHKEEEDGEGAGPGEQGGGKLVLSSLPKRLCLVCGDVASGYHYGVASCEACKAFFKRTIQGSIEYSCPASNECEITKRRRKACQACRFTKCLRVGMLKEGVRLDRVRGGRQKYKRRPEVDPLPFPGPFPAGPLAVAGGPRKTAAPVNALVSHLLVVEPEKLYAMPDPAGPDGHLPAVATLCDLFDREIVVTISWAKSIPGFSSLSLSDQMSVLQSVWMEVLVLGVAQRSLPLQDELAFAEDLVLDEEGARAAGLGELGAALLQLVRRLQALRLEREEYVLLKALALANSDSVHIEDAEAVEQLREALHEALLEYEAGRAGPGGGAERRRAGRLLLTLPLLRQTAGKVLAHFYGVKLEGKVPMHKLFLEMLEAMMD
# B7: HNF4A, P41235 (protein)
# chain: MRLSKTLVDMDMADYSAALDPAYTTLEFENVQVLTMGNDTSPSEGTNLNAPNSLGVSALCAICGDRATGKHYGASSCDGCKGFFRRSVRKNHMYSCRFSRQCVVDKDKRNQCRYCRLKKCFRAGMKKEAVQNERDRISTRRSSYEDSSLPSINALLQAEVLSRQITSPVSGINGDIRAKKIASIADVCESMKEQLLVLVEWAKYIPAFCELPLDDQVALLRAHAGEHLLLGATKRSMVFKDVLLLGNDYIVPRHCPELAEMSRVSIRILDELVLPFQELQIDDNEYAYLKAIIFFDPDAKGLSDPGKIKRLRSQVQVSLEDYINDRQYDSRGRFGELLLLLPTLQSITWQMIEQIQFIKLFGMAKIDNLLQEMLLGGSPSDAPHAHHPLHPHLMQEHMGTNVIVANTMPTHLSNGQMCEWPRPRGQAATPETPQPSPPGGSGSEPYKLLPGAVATIVKPLSAIPQPTITKQEVI
# Molecular target: nucleoprotein N of Crimean-Congo hemorrhagic fever virus
# Assay: AlphaScreen luminescence signal relative to Venus negative control (fold); higher = stronger binding to CCHFV N
# Method: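 AlphaScreen binding of cell-free made, FLAG-GST-tagged human transcription factors and regulators (crude translation products) to biotinylated N protein; signal as fold of the FLAG-GST-Venus control. One pass.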
row,Binder,AlphaScreen luminescence signal
1,B1,2.88
2,B2,1.58
3,B3,0.93
4,B4,1.72
5,B5,3.4
6,B6,3.35
7,B7,25.7
